Whole data set: some 13,000 compounds, median “IFI” near 4, cut for the highest 2% near 17. The list shows a part of the results.
Test: GSK_TCMDC: Inhibition Frequency Index (IFI). The number of non-kinase HTS assays where a compound showed > 50 % inhibition, expressed as a percentage of the number of such assays in which the compound was tested (-0 is zero)
Format: functional
`Cc1cc(-c2ccc(S(=O)(=O)Nc3cc4c(cc3OC(C)C)CCN(C)CC4)cc2)ccc1Cl` showed an IFI of 11.3%.
For `Cc1ccoc1C(=O)Nc1cccc(-c2cccc(-c3nc4ccccc4[nH]3)c2)c1`, the IFI was 3.7%.
Compound `CCN(CC)CCCC(C)N=c1cc(C=Cc2ccc([N+](=O)[O-])cc2)[nH]c2ccc(OC)cc12` (stereo not given) has an IFI of 1.65%.
For `COc1ccccc1CCN1CCC(CN(C)Cc2ccc(O)c(Cl)c2)CC1`, the IFI was 2.5%.
Compound `CCCc1cc(C)ccc1OCCCON1C(NC(=O)OCC)=NC(NC(=O)OCC)=NC1(C)C` has an IFI of 3.52%.
With `O=C(Nc1ccc(-c2ccccc2)cc1)Nc1cccc(OCCN2CCCC2)c1` the IFI was 1.45%.
`Cc1cc(CN2CC[C@H](NC(=O)c3ccc(Cl)c(Cl)c3)C2)ccc1OC1CCN(C)C1` (stereo not given in full) gave an IFI of 8%.
`Cc1cc(O)nc(NC(=N)NOCc2ccccc2)n1` gave an IFI of 0.73%.
`O=C(Nc1ccc(S(=O)(=O)N2CCCCC2)cc1)c1cc(-c2cc(Cl)ccc2O)n[nH]1` showed an IFI of 4.76%.
In the case of `O=C(/C=C/c1ccc(C(F)(F)F)cc1)NCCCCCN1CCCN(C(=O)Nc2ccc(F)c(Cl)c2)CC1`, the IFI is reported as 10.9%.
For `CCn1ccc2c(N3CCCS3(=O)=O)cc(C(=O)N[C@@H](Cc3ccccc3)[C@H](O)CNC(C)(C)c3cccc(OC)c3)cc21`, the IFI was 5.07%.
Compound `CC(=O)Oc1c(C2CCN(CCCCNC(=O)c3ccc(NC(=O)c4ccc(Cl)cc4)cc3)CC2)ccc2ccccc12` has an IFI of 5.61%.
Compound `CCCCNC(=N)c1ccc(OCCCCCOc2ccc(C(=N)NCCCC)cc2)cc1` has an IFI of 2.26%.
Compound `CC(C)(C)c1ccc(CNC(=O)c2ccc(-c3nc4ccc(Cl)cc4[nH]3)cc2)cc1` has an IFI of 0.73%.
In the case of `CN(c1ccc2c(c1)nc(NCc1ccccc1)n2C)c1ccnc(Nc2ccc(CS(C)(=O)=O)cc2)n1`, the IFI is reported as 5.19%.
For `O=C(Cc1ccc(NC(=O)c2ccc(O)c(-c3ccc(Cl)c(Cl)c3)c2)cc1)NCCc1ccc(Cl)c(Cl)c1`, the IFI was 2.22%.
With `Cc1ccccc1CN1CCCN(Cc2ccc(C(=O)Nc3ccc(Cl)cc3)cc2)CC1` the IFI was 10.2%.
Compound `CN(C)c1ccc(-c2ccc(C(=O)NC3CCN(Cc4ccc5c(c4)OCCO5)CC3)s2)cc1` has an IFI of 15.5%.
Compound `Cc1cc(N)ncc1-c1ccc(NC(=O)Nc2cc(C(F)(F)F)ccc2F)cc1` has an IFI of 6.67%.
`Cc1cc(OCc2ccncc2)cc2c1C(=O)CC(C)(C)O2` gave an IFI of 2.82%.
For `CCCNCc1ccc(-c2ccc(CN(CCOC)C(=O)Cc3cccnc3)cc2)nc1`, the IFI was 0.7%.
In the case of `O=S(=O)(NC1CCN(c2ccnc3ccccc23)C1)c1ccc(OC(F)(F)F)cc1` (stereo not given), the IFI is reported as 4.69%.
For `CC(Cc1ccc(OCCN2CCN(c3cccc(C(F)(F)F)c3)CC2)cc1)NCC(O)c1cccc(C(F)(F)F)c1` (stereo not given), the IFI was 10.8%.
Compound `Cc1ccc2oc3cc(-c4nnn[nH]4)ccc3c(=O)c2c1` has an IFI of 2.27%.
For `O=C(NC1CCCCC1)N(Cc1ccc(-c2ccc(CNC3CCCC3)cc2)cc1)C1CCN(Cc2ccccc2)CC1`, the IFI was 8.46%.
For `CCn1c(-c2nonc2N)nc2c(-c3cccc(NC(=O)NC45CC6CC(CC(C6)C4)C5)c3)ncc(OCCCN)c21`, the IFI was 16.7%.
In the case of `CCNc1cc(C(=O)N[C@@H](Cc2ccccc2)[C@H](O)CNC2(CCC(C)C)CC2)cc(N2CCCCS2(=O)=O)c1`, the IFI is reported as 2.94%.
Compound `CC(C)CN(c1nc(C(=O)NNC(=O)[C@H](CC2CC2)NC(=O)c2cc3cc(OCCN(C)C)ccc3o2)cs1)C1CC1` has an IFI of 3.65%.
In the case of `O=C(Nc1ccccc1)Nc1cccc(-c2nn3c(OCCN4CCCC4)cccc3c2-c2ccncc2)c1`, the IFI is reported as 7.75%.
Work on `Cc1ccc(-c2nc3ccccc3o2)cc1NCc1cc(Cc2ccccc2)ccc1O` yielded an IFI of 2.19%.
With `O=C(Nc1nc(-c2ccccn2)cs1)c1ccc(Br)s1` the IFI was 6.82%.
For `COc1ccc(CSC2CCCCC23NC(=S)NC3=S)cc1` (stereo not given), the IFI was 2.94%.
With `Cc1cc(-c2ccc3c(c2)CC[C@@H](N[C@@H](C)c2ccccc2)C3)cnc1N` the IFI was 5.07%.
With `COC(=O)c1cccc(CNCc2ccc(-c3cccc(-c4nc5cc(C(F)(F)F)ccc5[nH]4)c3)cc2)c1` the IFI was 5.71%.
For `CCCN(CCCCCCNCCc1ccc(Cl)cc1)CCc1ccc(O)c(O)c1`, the IFI was 6.8%.
For `O=C(NCCCCN1CCC(c2nc3ccccc3s2)CC1)c1cc2ccccc2[nH]1`, the IFI was 10.6%.
For `Nc1c2c(nc3ccccc13)C(=Cc1ccc(O)cc1)CCC2`, the IFI was 3.55%.
In the case of `COc1ccc(Cc2nc3c(n2C(C)=O)SC(c2ccc(Cl)c(Cl)c2)=NN3C(C)=O)cc1`, the IFI is reported as 0%.
`Cc1cc(OCC(=O)Nc2ccc(-c3nc4ccccc4[nH]3)cc2)cc(C)c1Cl` showed an IFI of -0%.
For `CC(C)(C)OC(=O)NCc1ccc(Nc2nnc(-c3cccc(OCC(=O)NCc4cc(C(F)(F)F)cc(C(F)(F)F)c4)c3)o2)cc1`, the IFI was 2.96%.
In the case of `O=C(NC1CCC1)C1CCN(C(c2ccccc2)c2cc(F)cc(F)c2)CC1` (stereo not given), the IFI is reported as 2.82%.
Work on `N#Cc1ccc(NC(=O)NC2CCN(CCCCCNC(=O)/C=C/c3ccc(Cl)c(Cl)c3)CC2)cc1` yielded an IFI of 4.03%.
In the case of `O=C(Nc1ccc(F)c(F)c1)c1ccc(CN2CCCN(Cc3cccc(F)c3)CC2)cc1`, the IFI is reported as 8.8%.
`Cc1occc1C(=O)Nc1nc(-c2ccccn2)nc2ccsc12` gave an IFI of 8.21%.
Work on `COc1ccc2ncc(F)c(CCN3CC[C@@H](CNCc4cc(C)c5c(c4)OCCO5)C3)c2n1` yielded an IFI of 6.73%.
`Oc1ccc(CCNc2nc(NCc3ccccc3-c3ccc(C(F)(F)F)cc3)nc(N3CCNCC3)n2)cc1` showed an IFI of 13.1%.
For `COc1ccc(F)cc1-c1cccc(CNC2CCN(CC3Cn4c(=O)ccc5ccc(F)c3c54)CC2)c1` (stereo not given), the IFI was 8.77%.
For `CCCc1ccc(NC(=O)c2cccc(CN3CCCN(Cc4cccc(C#N)c4)CC3)c2)cc1`, the IFI was 6.43%.
`CC(C)c1ccc(N(CC(=O)N/N=C/c2ccc(C(F)(F)F)cc2)S(=O)(=O)c2ccc(C(F)(F)F)cc2)cc1` gave an IFI of -0%.
Work on `CNCc1ccc(-c2cccc(CNCc3ccc(-c4ccccc4)cc3)c2)c(C(=O)OC)c1` yielded an IFI of 7.94%.
`CC(C)C1C(O)=C(c2ccc3ccccc3c2)C(=O)N1Cc1ccsc1` (stereo not given) showed an IFI of -0%.
In the case of `Cc1cccc2c(CON3C(N)=NC(N)=NC3(C)C)cccc12`, the IFI is reported as 3.52%.
In the case of `N#CN1CC[C@@H](NS(=O)(=O)Cc2ccc(Cl)c(Cl)c2)C1`, the IFI is reported as 6.67%.
For `O=C(Nc1ccc(O)c(-c2nc3ccccc3[nH]2)c1)c1ccc([N+](=O)[O-])cc1`, the IFI was 0.75%.
In the case of `Cc1ccc(CN2CCN(c3cc4c(cc3Cl)CCN4C(=O)Cc3ccc(NC(=O)c4ccc(C(F)(F)F)cc4)cc3)CC2)cc1`, the IFI is reported as 1.46%.

From ChEMBL document CHEMBL1157539, “Thousands of chemical starting points for antimalarial lead identification” (Nature, 2010)
